Experimental data taken from the supplement of paper PMC4604168 (melanoma cell lines).
This is one part of the list. Repeats are few or missing, and single values can be far off.
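Note: cell number obtained by counting DAPI-stained nuclei in high-throughput microscope images with image analysis software, screen run in 1,536-well plates.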

Each compound was assayed on IPC-298 (assay: cell count relative to DMSO control; melanoma cells; higher = more viable cells). Conditions: library dose: low library concentration; 72 h.
With `O=C(O)c1ccc(-c2c[nH]c3ncc(-c4ccccc4)cc23)cc1C1CCCC1` + CCN(CC)CCCCNc1ncc2cc(-c3cc(OC)cc(OC)c3)c(NC(=O)NC(C)(C)C)nc2n1 [PD173074] (first compound 0.16 µM, partner dose 0.1 µM) the cell count was 91.4%. In the case of `O=c1[nH]nc(Sc2ncc([N+](=O)[O-])s2)n1-c1ccc2c(c1)OCCO2` + CN1CCN(c2ccc3nc(-c4c(N)c5c(F)cccc5[nH]c4=O)[nH]c3c2)CC1 [Dovitinib] (first compound 0.2 µM, partner dose 0.1 µM), the cell count is reported as 103%. `COc1cc(Nc2ncc(F)c(Nc3ccc4c(n3)NC(=O)C(C)(C)O4)n2)cc(OC)c1OC` [Tamatinib] + COc1ccc(-c2ccc3c(N4CCOCC4)nc(N4C[C@@H](C)O[C@@H](C)C4)nc3n2)cc1CO [KU0063794] (first compound 0.4 µM, partner dose 0.02 µM) showed a cell count of 72.3%. `O=c1[nH]nc(Sc2ncc([N+](=O)[O-])s2)n1-c1ccc2c(c1)OCCO2` + CCCS(=O)(=O)Nc1ccc(F)c(C(=O)c2c[nH]c3ncc(Cl)cc23)c1F [PLX4720] (first compound 0.2 µM, partner dose 0.08 µM) gave a cell count of 97.2%. `O=c1[nH]nc(Sc2ncc([N+](=O)[O-])s2)n1-c1ccc2c(c1)OCCO2` + COc1ccc(Cl)c(Nc2nc3ccccc3nc2NS(=O)(=O)c2cccc(NC(=O)C(C)(C)N)c2)c1 [XL147] (first compound 0.2 µM, partner dose 0.8 µM) was tested, and the cell count was 92.4%. In the case of `C[C@@H]1CCN(C(=O)CC#N)C[C@@H]1N(C)c1ncnc2[nH]ccc12` + COc1ccc2c(c1)CCC1C2CCC2(C)C(NCCCCCCN3C(=O)C=CC3=O)CCC12 [U73122] (first compound 1 µM, partner dose 0.4 µM), the cell count is reported as 98.7%. For `CC1(C)NC(=O)N(c2ccc([N+](=O)[O-])c(C(F)(F)F)c2)C1=O` [nilutamide] + c1cc(-c2cnn3cc(-c4ccc(OCCN5CCCCC5)cc4)cnc23)ccn1 [Dorsomorphin] (first compound 1 µM, partner dose 0.4 µM), the cell count was 102%. In the case of `O=c1[nH]nc(Sc2ncc([N+](=O)[O-])s2)n1-c1ccc2c(c1)OCCO2` + C=CCNC1=C2C[C@@H](C)C[C@H](OC)[C@H](O)[C@@H](C)/C=C(\C)[C@H](OC(N)=O)[C@@H](OC)/C=C\C=C(/C)C(=O)NC(=CC1=O)C2=O [Tanespimycin] (first compound 0.2 µM, partner dose 0.002 µM), the cell count is reported as 97.7%. In the case of `O=C(Nc1cccc(Cl)c1)Nc1ncc(CCNc2ncnc3ccsc23)s1` + COc1cc(N2CCC(N3CCN(C)CC3)CC2)ccc1Nc1ncc(Cl)c(Nc2ccccc2S(=O)(=O)C(C)C)n1 [NVP-TAE684] (first compound 0.0008 µM, partner dose 0.08 µM), the cell count is reported as 96.6%. `O=c1[nH]nc(Sc2ncc([N+](=O)[O-])s2)n1-c1ccc2c(c1)OCCO2` + C[C@]1(c2nc3c(C(N)=O)cccc3[nH]2)CCCN1 [Veliparib] (first compound 0.2 µM, partner dose 1.4 µM) showed a cell count of 99.9%. For `O=C(Nc1cccc(Cl)c1)Nc1ncc(CCNc2ncnc3ccsc23)s1` + CCCCCCCCCCCC1=C(O)C(=O)C=C(O)C1=O [Embelin] (first compound 0.0008 µM, partner dose 1.2 µM), the cell count was 100%. Work on `O=C(Nc1cccc(Cl)c1)Nc1ncc(CCNc2ncnc3ccsc23)s1` + c1cc(-c2cnn3cc(-c4ccc(OCCN5CCCCC5)cc4)cnc23)ccn1 [Dorsomorphin] (first compound 0.0008 µM, partner dose 0.4 µM) yielded a cell count of 96.5%. `C[C@@H]1CCN(C(=O)CC#N)C[C@@H]1N(C)c1ncnc2[nH]ccc12` + CCCCCCCCCCCC1=C(O)C(=O)C=C(O)C1=O [Embelin] (first compound 1 µM, partner dose 1.2 µM) showed a cell count of 98.5%. `COc1cc(Nc2ncc(F)c(Nc3ccc4c(n3)NC(=O)C(C)(C)O4)n2)cc(OC)c1OC` [Tamatinib] + Oc1nc(-c2ccc(C(F)(F)F)cc2)nc2c1CSCC2 [XAV939] (first compound 0.4 µM, partner dose 2 µM) showed a cell count of 86.1%. Compound `O=C(O)c1ccc(-c2c[nH]c3ncc(-c4ccccc4)cc23)cc1C1CCCC1` + COc1ccc2c(c1)CCC1C2CCC2(C)C(NCCCCCCN3C(=O)C=CC3=O)CCC12 [U73122] (first compound 0.16 µM, partner dose 0.4 µM) has a cell count of 95.4%. For `O=c1[nH]nc(Sc2ncc([N+](=O)[O-])s2)n1-c1ccc2c(c1)OCCO2` + Nc1ccn([C@@H]2O[C@H](CO)[C@@H](O)C2(F)F)c(=O)n1 [gemcitabine] (first compound 0.2 µM, partner dose 0.0004 µM), the cell count was 91.2%. Work on `CC1(C)NC(=O)N(c2ccc([N+](=O)[O-])c(C(F)(F)F)c2)C1=O` [nilutamide] + CCCCCCCCCCCC1=C(O)C(=O)C=C(O)C1=O [Embelin] (first compound 1 µM, partner dose 1.2 µM) yielded a cell count of 97.7%. In the case of `O=c1[nH]nc(Sc2ncc([N+](=O)[O-])s2)n1-c1ccc2c(c1)OCCO2` + CNC(=O)c1cc(Oc2ccc(NC(=O)Nc3ccc(Cl)c(C(F)(F)F)c3)cc2)ccn1 [sorafenib] (first compound 0.2 µM, partner dose 0.4 µM), the cell count is reported as 92.1%. With `Cn1cncc1[C@@](N)(c1ccc(Cl)cc1)c1ccc2c(c1)c(-c1cccc(Cl)c1)cc(=O)n2C` [tipifarnib] + COC(=O)c1sccc1S(=O)(=O)Nc1ccc(Nc2ccccc2)cc1OC [GSK0660] (first compound 0.01 µM, partner dose 1 µM) the cell count was 99.9%. Work on `O=c1[nH]nc(Sc2ncc([N+](=O)[O-])s2)n1-c1ccc2c(c1)OCCO2` + Cc1cn(-c2cc(NC(=O)c3ccc(C)c(Nc4nccc(-c5cccnc5)n4)c3)cc(C(F)(F)F)c2)cn1 [nilotinib] (first compound 0.2 µM, partner dose 0.2 µM) yielded a cell count of 92.1%. Work on `O=c1[nH]nc(Sc2ncc([N+](=O)[O-])s2)n1-c1ccc2c(c1)OCCO2` + CC(C)C[C@H](NC(=O)[C@H](Cc1ccccc1)NC(=O)c1cnccn1)B(O)O [Bortezomib] (first compound 0.2 µM, partner dose 0.001 µM) yielded a cell count of 97.5%. For `O=c1[nH]nc(Sc2ncc([N+](=O)[O-])s2)n1-c1ccc2c(c1)OCCO2` + Cc1nc(Nc2ncc(C(=O)Nc3c(C)cccc3Cl)s2)cc(N2CCN(CCO)CC2)n1 [dasatanib] (first compound 0.2 µM, partner dose 0.004 µM), the cell count was 90.2%. `O=C(O)c1ccc(-c2c[nH]c3ncc(-c4ccccc4)cc23)cc1C1CCCC1` + Oc1nc(-c2ccc(C(F)(F)F)cc2)nc2c1CSCC2 [XAV939] (first compound 0.16 µM, partner dose 2 µM) gave a cell count of 93.7%. `CC1(C)NC(=O)N(c2ccc([N+](=O)[O-])c(C(F)(F)F)c2)C1=O` [nilutamide] + CCN(CC)CCCCNc1ncc2cc(-c3cc(OC)cc(OC)c3)c(NC(=O)NC(C)(C)C)nc2n1 [PD173074] (first compound 1 µM, partner dose 0.1 µM) gave a cell count of 101%. `Cn1cncc1[C@@](N)(c1ccc(Cl)cc1)c1ccc2c(c1)c(-c1cccc(Cl)c1)cc(=O)n2C` [tipifarnib] + c1cc(-c2cnn3cc(-c4ccc(OCCN5CCCCC5)cc4)cnc23)ccn1 [Dorsomorphin] (first compound 0.01 µM, partner dose 0.4 µM) gave a cell count of 105%. Compound `C[C@@H]1CCN(C(=O)CC#N)C[C@@H]1N(C)c1ncnc2[nH]ccc12` + COc1cc(N2CCC(N3CCN(C)CC3)CC2)ccc1Nc1ncc(Cl)c(Nc2ccccc2S(=O)(=O)C(C)C)n1 [NVP-TAE684] (first compound 1 µM, partner dose 0.08 µM) has a cell count of 102%. `O=C(O)c1ccc(-c2c[nH]c3ncc(-c4ccccc4)cc23)cc1C1CCCC1` + Oc1cc(-c2nc(-c3ccccc3)[nH]c2-c2ccncc2)ccc1Cl [L779450] (first compound 0.16 µM, partner dose 0.2 µM) gave a cell count of 80.6%. `COc1cc(Nc2ncc(F)c(Nc3ccc4c(n3)NC(=O)C(C)(C)O4)n2)cc(OC)c1OC` [Tamatinib] + COc1ccc2c(c1)CCC1C2CCC2(C)C(NCCCCCCN3C(=O)C=CC3=O)CCC12 [U73122] (first compound 0.4 µM, partner dose 0.4 µM) showed a cell count of 77.8%. `C[C@@H]1CCN(C(=O)CC#N)C[C@@H]1N(C)c1ncnc2[nH]ccc12` + O=S(=O)(c1ccccc1)N(CC(F)(F)F)c1ccc(C(O)(C(F)(F)F)C(F)(F)F)cc1 [T0901317] (first compound 1 µM, partner dose 1.4 µM) was tested, and the cell count was 98.1%. Work on `O=c1[nH]nc(Sc2ncc([N+](=O)[O-])s2)n1-c1ccc2c(c1)OCCO2` + COc1ccc(C2=N[C@@H](c3ccc(Cl)cc3)[C@@H](c3ccc(Cl)cc3)N2C(=O)N2CCNC(=O)C2)c(OC(C)C)c1 [Nutlin-3] (first compound 0.2 µM, partner dose 0.1 µM) yielded a cell count of 101%. Work on `CC1(C)NC(=O)N(c2ccc([N+](=O)[O-])c(C(F)(F)F)c2)C1=O` [nilutamide] + COc1cc(N2CCC(N3CCN(C)CC3)CC2)ccc1Nc1ncc(Cl)c(Nc2ccccc2S(=O)(=O)C(C)C)n1 [NVP-TAE684] (first compound 1 µM, partner dose 0.08 µM) yielded a cell count of 107%.
